US20100196361A1, “Method of inhibition of vascular development using an antibody” (DYAX CORP., priority 2003, published 2010)

How the values were obtained:
[1] = test system: LLC (mouse lung carcinoma); assay: LLC tumor model in mice; type: in vivo; settings: day 14 after start of treatment
Description: In addition to the in vivo studies presented above, four additional mouse xenografts studies were performed. These studies were conducted either according to the protocols used in the SW-480 or LNM35 study.
The anti-Tie1 antibody was also evaluated for its effect on implanted tumors. Tumor cells were injected subcutaneously into the abdominal region of mice (Balb/C nu/nu female mice, 5-6 weeks old). The following tumor cells were tested: a lung carcinoma (mouse syngeneic Lewis lung carcinoma (LLC)); human lung carcinoma LNM35; an aggressive human colon carcinoma clone (SW480R). Treatments with anti-Tie1 antibody were initiated 4-6 days post-implantation. The anti-Tie1 antibodies or a control antibody (the A2 anti-streptavidin antibody) were administered intraperitoneally at 20 mg/kg every second day. Tumor volume was measured every second day and calculated as 0.5×height×width×depth.

[2] = biological target: T1, human Tie1-Fc fusion protein (Homo sapiens, UniProt P35590); assay: BIAcore 3000 affinity analysis of Fab and IgG; type: binding
T1 construct: selected against the Tie1 extracellular domain fused to human Fc or to a histidine purification tag
T1 sequence (P35590 22-759 limits assumed): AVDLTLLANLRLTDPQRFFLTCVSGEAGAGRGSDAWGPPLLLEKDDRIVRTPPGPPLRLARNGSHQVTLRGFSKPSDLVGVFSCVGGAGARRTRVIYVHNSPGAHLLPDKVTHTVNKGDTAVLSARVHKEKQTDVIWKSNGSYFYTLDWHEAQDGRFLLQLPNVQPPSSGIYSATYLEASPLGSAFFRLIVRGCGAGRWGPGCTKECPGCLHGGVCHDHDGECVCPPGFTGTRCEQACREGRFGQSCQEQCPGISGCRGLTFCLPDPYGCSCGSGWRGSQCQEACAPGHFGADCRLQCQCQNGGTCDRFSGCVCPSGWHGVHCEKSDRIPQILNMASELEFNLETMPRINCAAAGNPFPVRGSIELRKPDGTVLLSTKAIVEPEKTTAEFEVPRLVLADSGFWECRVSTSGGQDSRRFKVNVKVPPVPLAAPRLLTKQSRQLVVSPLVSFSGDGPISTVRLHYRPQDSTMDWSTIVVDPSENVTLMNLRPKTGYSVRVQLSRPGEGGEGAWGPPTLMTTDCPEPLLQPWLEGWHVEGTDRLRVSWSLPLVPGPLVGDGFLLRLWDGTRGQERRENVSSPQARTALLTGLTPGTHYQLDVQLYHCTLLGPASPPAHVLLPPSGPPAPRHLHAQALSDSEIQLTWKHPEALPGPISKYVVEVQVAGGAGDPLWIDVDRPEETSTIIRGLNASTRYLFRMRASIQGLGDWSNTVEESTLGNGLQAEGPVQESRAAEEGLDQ
Description: Affinity analysis of the Fab and IgGs was performed using surface plasmon resonance using a BIAcore 3000 instrument. For this analysis both dimeric (Tie1-Fc fusion protein) and monomeric (Tie1-HIS) versions of the extracellular domain of the Tie1 were used. The sensor chips used in these experiments were CM5 (dextran-coated) which allow immobilization of proteins to the chip via standard amine coupling chemistries. The concentration of flowed antibody was determined using a surface plasmon resonance based method. Using a high-density protein A sensor chip, under mass transport limited conditions, the response signal is dependent only on the concentration of the antibody in the sample under test. This approach allows a precise determination of the antibody concentration, a parameter important for accurate determination of the KD.
470 RUs of Tie1 HIS protein were coated on a CM5 sensor chip and 5, 20, 100, and 500 nM of the Fab flowed over the chip at four different flow rates ([…]), rates in which the system is not mass transport limited. Kinetic data was typically determined using a range of analyte concentrations and three different chip coating densities. The data from the lowest coating density that gave a good signal was typically chosen, this was often in a range from 50-100 RUs. Using such low coating densities allowed the sensor curves to be fit using BIAEVALUATION™ 3.0 software to a 1:1 model, often even when using a bivalent analyte (IgG or Tie1-Fc fusion protein). For bivalent analytes, when fit to a 1:1 model was not possible, the curves were fit using a 2:1 model.
The anti-Tie1 antibodies described here bind to both human and mouse Tie1 molecules. The binding of the anti-Tie1 Fab to mouse Tie1-Fc fusion protein was compared with the binding of the anti-Tie1 Fab to human Tie1-Fc fusion protein. In both of these experiments the Tie1-Fc fusion protein was immobilized on the sensor chip and the anti Tie-1 Fab served as the analyte. […]

[3] = test system: SW-480 (colorectal cancer) cells; assay: SW-480 colorectal cancer xenograft in nu/nu mice; type: in vivo, mouse
Description: Mice (nu/nu) were implanted subcutaneously with 5×10^6 SW-480 (colorectal cancer) cells. After 12 days, when tumors reached approximately 100-200 mg, the mice were separated into 5 groups and treated with the following agents (or left untreated):
3—Cisplatin (4 mg/kg/, IV, q2d×5 times)
4—A2-SV (negative control antibody@10 mg/kg, IP, q2d×14 times)
5—DX-2220 (anti-Tie-1 antibody@10 mg/kg, IP, q2d×14 times)
Throughout the study, the length (L) and width (W) of any tumors that developed were measured in millimeters using calibrated vernier calipers, where L is the longer of the two dimensions. When applicable, tumor weight (M) in milligrams was calculated by using the formula associated with a prolate ellipsoid: M=(L×W^2)/2. […] A2-SV is an isotype matched (IgG1) negative control antibody that binds strepavidin.

B1: DX-2220: full length, IgG1, germlined human anti-Tie1 antibody E3b; LC SEQ ID NO:700, HC SEQ ID NO:701 (antibody)
heavy: EVQLLESGGGLVQPGGSLRLSCAASGFTFSMYGMVWVRQAPGKGLEWVSVISPSGGNTGYADSVKGRFTISRDNSKNTLYLQMNSLRAEDTAVYYCARAPRGYSYGYYYWGQGTLVTVSS[left out - human IgG1 constant region]
light: DIQMTQSPSSLSASVGDRVTITCRASQGIGHYLAWYQQKPGKVPKLLIYTASTLQSGVPSRFSGSGSGTDFTLTISSLQPEDVATYYCQQFNSYPHTFGQGTRLEIKRTVAAPSVFIFPPSDEQLKSGTASVVCLLNNFYPREAKVQWKVDNALQSGNSQESVTEQDSKDSTYSLSSTLTLSKADYEKHKVYACEVTHQGLSSPVTKSFNRGEC
modifications: Antibody
With B1 the “inhibition of tumor progression” value [1] was 20% inhibition @ day 14, the “Koff” value ([2]; Human Tie1-Fc) was 3.67e-05 s⁻¹ and the “Kon” value ([2]; Human Tie1-Fc) was 7090 M⁻¹ s⁻¹. The “increase in affinity (avidity effect) of bivalent antibody over Fab” value ([2]; Tie1-Fc immobilized) was “greater than 10 fold”, the “slowing of tumor progression compared to vehicle (PBS)-treated control animals” value ([3]; 10 mg/kg IP q2d×14) was 44% and the “efficacy relative to chemotherapeutic control” value ([3]; 10 mg/kg IP q2d×14 versus cisplatin 4 mg/kg IV q2d×5) was “as efficacious as the chemotherapeutic control (cisplatin)”.
